Reference: the supplement of paper PMC11417369
The other results are listed elsewhere or left out.

The sequences below were run on PfAP2-HC AP2 domain (GST-tagged) (assay: gcPBM binding intensity (ln(normalized median fluorescence intensity)); higher = stronger DNA binding).
Procedure, shortened: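 Binding intensity values are the highest Masliner-normalised natural-log median intensity among replicate spots of either probe orientation. The binding step lasted 1 h in 1× PBS with 1% milk, 0.2 mg/ml BSA, 0.5% salmon testes DNA and 0.03% Triton X-100, using GST-tagged P. falciparum DNA-binding domains expressed in E. coli on an Agilent 4 × 180k array of primer-extended double-stranded 36-bp intergenic genomic probes plus negative controls. Alexa488 anti-GST antibody and a 488 nm scan detected bound protein.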

| Sequence | gcPBM binding intensity (ln) |
| --- | --- |
| GGTTGTATAAGTTTTTGTACATATATATATATATAT [XGTACX_site7487] | 9.84 |
| TTCAAGGTTTTAGATTGTACAATTATTATATATATA [XGTACX_site8982] | 9.56 |
| TGAGCATAAAAAGGGTGTACTTAAATATATTATATA [XGTACX_site7556] | 9.57 |
| GAATATAATCTGTATTGTACGAAAGTTGAACACTTG [XGTACX_site8895] | 9.61 |
| TTGTATTATTATGTTGCACACATTTTATATAAAATA [CACACA_site3641] | 9.91 |
| TATATATATATATATATATATACAAATATATATTAT [CACACA_negctrl_site1729] | 9.52 |
| TTTAGATAATTCATTACACACATGTATTTATATATA [CACACA_site5847] | 9.79 |
| TTTTTGTAAAAACACACACACAAACAGAAAAAATAA [CACACA_site2076] | 10.3 |
| TGTGCCCAAAATTATGCACACACCTAAAATTAATTT [CACACA_site2914] | 9.85 |
| ATGGTAGTTCTCCATGCATGCCTTTTTATTATCATA [TGCATGCA_site681] | 10 |
| ACTATTTAGTCTGGTGGTACTTTATATATAATTTCT [XGTACX_site5618] | 10.5 |
| ATATGTGTATGTGCGTGTACATATCTATACAGTTGT [XGTACX_site6540] | 9.87 |
| TTTTATCTTTTTTTATTTTAATGTATTATTTTTATG [XGTACX_negctrl_site24] | 9.69 |
| ATTATCATAATGTTCACACATATGGTATATATAGAT [CACACA_site6113] | 9.7 |
| TAATAAGAAATAACAGGTACACATATATAAATATTA [XGTACX_site2976] | 9.78 |
| ATATGTAGATGATATTATTACTTTTCAAAAATTCAA [CACACA_negctrl_site933] | 9.6 |
| TTTTTCATTAATACAAGTACAAAATGATGTTGACAT [XGTACX_site1475] | 9.27 |
| AAGTATAAAAAAAGGCGTACAAAAAAAAAAAAAAAA [XGTACX_site7309] | 9.1 |
| TTTTTGTATGCTTCCCGATTACATTATGTTGTAAAT [CACACA_negctrl_site227] | 9.77 |
| ATTTATGTTATATATACACACACAAAAGAAAAAAAA [CACACA_site8977] | 9.96 |
| TCCTACATATAAAAATGTACCCATTGTTTTTTTTTT [XGTACX_site7205] | 9.64 |
| TATATATATATATATACACACATATACATATTGTTT [CACACA_site3499] | 9.64 |
| AATGTATATAGAAACATGCACACGTGGTTGTATATA [CACACA_site3278] | 10.1 |

| Sequence | gcPBM binding intensity (ln) |
| --- | --- |
| TTGTGTTAACTACCATGTACTTATACATCATAGGAA [XGTACX_site6627] | 9.43 |
| TATTGCCCTGGACACACACACATATATATATATATA [CACACA_site5389] | 10.2 |
| ATAATATAAACATACACACACACATCTATATTTATA [CACACA_site7381] | 10.6 |
| TTATGTTATATAAAAAGTACAAATTTTTTTTAATTA [XGTACX_site3435] | 9.42 |
| ATTATTATTATATATGCATGTAAAATATTAAAGTAC [TGCATGCA_site914] | 9.58 |
| ATACATATAAAAAAGTGTACATATTAAAATAAGTAT [XGTACX_site1310] | 9.85 |
| TTTTTTATAAATCAAATGAAAAATAAACTATTCAGA [CACACA_negctrl_site1568] | 9.32 |
| ATATCCGTTCAAAGATGTACATATATATTCTATAGA [XGTACX_site5354] | 9.7 |
| AATGCAAATAATAAAACACACAAAAAAAAGAAAAAA [CACACA_site1184] | 9.9 |
| TCATACAAACCTATTTGTACATAAGTATAATATATA [XGTACX_site4284] | 9.54 |
| AAGTATTACAACCACACACACACCTATATATCATAG [CACACA_site7878] | 11 |
| ATCTTTTACGAATACACACACATAAAGAAAAAAAAA [CACACA_site1331] | 9.98 |
| AAGGATATGAAAAGTAGTACAAAATTTAGAACACCC [XGTACX_site4758] | 9.94 |
| TTACGATTAAATATAACACACAACATATTTTTAATA [CACACA_site2967] | 9.76 |
| ATTATATTCTCCTTCACACACAAAAATATTTCATCA [CACACA_site5326] | 9.93 |
| CACAAAAATTTATACACACACATATATAATATATAT [CACACA_site152] | 10.5 |
| ATTTCAAATTAATTTACACACTTCATACTAAAAGAC [CACACA_site3176] | 9.66 |
| TTGATATATAATAATACACACTTACATAATTAATTA [CACACA_site4320] | 9.63 |
| ATGTATATGTTTTGTTGTACAAGTATTTTATATCTT [XGTACX_site3588] | 9.82 |
| TTTCAATTTATCAGTGTGCACAAAAATAAAATAAAA | 9.88 |
| TAAATACAGACATATACACACATATATATATATATA [CACACA_site4382] | 9.75 |
| TTTAAATATATTCAATCACACACATTCGTTTTTTTT [CACACA_site7962] | 9.88 |
| AATATATACATACATACATGCATACATATATATAAC [TGCATGCA_site371] | 9.77 |

| Sequence | gcPBM binding intensity (ln) |
| --- | --- |
| AGTAGTCTGGAGAAAAGTACACAGTATCTGGTAACC [XGTACX_site2035] | 9.69 |
| GAATATTAAACAAACACACACACATATATATATATA [CACACA_site3382] | 10.7 |
| GTTTATTGATTTATTTGTACTTATATATATATTTCA [XGTACX_site5098] | 9.96 |
| GTATAAAAATTATATACACACAACAGAATTACATAT [CACACA_site133] | 10.1 |
| TAAAGATGTATTTATTCACACATCTCATATAATGAA [CACACA_site5229] | 9.46 |
| TTATGTATCCTTATAAGAAAAAAAAAAAAATTCTCT [CACACA_negctrl_site1183] | 9.26 |
| AATAAAAATATAGGCACACATATTAAAATGAACTTA [CACACA_site830] | 9.93 |
| TGAATTTAGATATATACACACAAAAGTAAATACAAT [CACACA_site5548] | 10.1 |
| TATAAATAGATATATACACACATTTTTAATGATAAA [CACACA_site7299] | 9.77 |
| TTTTTATTTTTTCAAGTGCATATTTTTGGCTTCTTA | 9.53 |
| TATATATATATATTACGTTTTAAATATACTAATCTT [CACACA_negctrl_site32] | 9.62 |
| CTTTTTCCTTTATATTGTACATAATTAAAGATAATA [XGTACX_site7014] | 9.16 |
| AAAAAAAAAAAAAATACACACATATATATATATATA [CACACA_site85] | 10.1 |
| TAAATTTATATATAGGTGCGCAATTTGATAATAGTT [GTGCAC_site9783] | 9.96 |
| AAAAAAAAAAGACACACACACAATAGTATATAAATC [CACACA_site6579] | 10.5 |
| ATATAATCCTTTCAAACACACAAAATATAATTAATA [CACACA_site1829] | 9.76 |
| ATGATGGAATATTCTACACACAATTAATAAACAAAC [CACACA_site1045] | 9.94 |
| TTTTTTTATAAATTCACACAAAATATAATATTAAAA [CACACA_site4766] | 9.23 |
| CTATATATTTTTCATTGTACACAAATTAAAGAAAAA [XGTACX_site8385] | 9.3 |
| AATGTCATCATATTCATATATATTTATTTCTTTTTG [GTGCAC_negctrl_site500] | 9.69 |
| GGTTATAACCCACATGCACACGTAAATAAATATTAT [CACACA_site5992] | 9.76 |
| ATAAATAATAAGGTTACAACAAACACACAAAGGAAT [XGTACX_negctrl_site611] | 10.2 |
| TAAAAAAAAAAGTATACACACTTCTTAATGTCAACA [CACACA_site4818] | 9.6 |

| Sequence | gcPBM binding intensity (ln) |
| --- | --- |
| TGTCCAATTTATTGTGCACACCTCAAAAGTGGGTAA [CACACA_site3826] | 9.69 |
| GATATATAGGTATTTACACACAATGTGAGATCTATA [CACACA_site7575] | 9.95 |
| AAAGACTTTTTATGAGCACACACATATATTATGGAG [CACACA_site8254] | 9.83 |
| TTTCTATAATATATATGTACATATATAATATGTCGT [XGTACX_site3676] | 9.7 |
| AGATAAAATAAATACACACACATAAATACGTACAAA [CACACA_site4739] | 10.4 |
| TGATAATAAGCATACACACACACACTAAAAAAAAAA [CACACA_site6478] | 10.9 |
| ATGATTATACAAAATATACACACGTGGACACAAATA [CACACA_site8304] | 10.3 |
| AGAAGATTAAAAATTGCACACAAAAATATATTTTCT [CACACA_site8359] | 9.8 |
| TACCTATATACATACACACACATATAACCAATGTAG [CACACA_site7096] | 10.4 |
| TAATAAATAAAAACATGTACATATATACATATATGT [XGTACX_site485] | 9.69 |
| TTGATATACTATGACACATGCAAATAAAACATTATA [TGCATGCA_site535] | 9.58 |
| TAATCATTTTTAAATTGTACAATTTATATAATAAGT [XGTACX_site6081] | 9.49 |
| TAAATTTTGTTTAGCACACACACATACATACATACA [CACACA_site3155] | 10.8 |
| TTGTATTGTATATGCACACATAGAACACTTTTTTTT [CACACA_site4133] | 9.88 |
| TATTTTTTAAGTGAACATTTGTTATTATATTCTTAT [GTGCAC_negctrl_site172] | 9.56 |
| TATATCTGTATCATTACACACATGTATACTTATTTG [CACACA_site6134] | 10.1 |
| ATTAAAATAGAAAAAAAAAAAAAAAAAAAAAAAAAA [CACACA_negctrl_site1117] | 8.88 |
| GATGATACACAGGTGTTGCACTTAAATGCAGTTCTT [GTGCAC_site9627] | 9.71 |
| TATGGGGAACTATAATGTACGTATTCCTCATATATA [XGTACX_site338] | 9.7 |
| TTTTCAAAATGTTGTACACACAAAAAAAAAAAAAAA [CACACA_site1550] | 9.58 |
